We go through 4 compounds from PubChem BioAssay (NCI).

Molecules are shown by their SMILES. Several values for one entry are separate records, joined by “and”; a condition that tells them apart may be missing. Equal values may be shown once.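 Cells were grown in 96-well plates and exposed to each compound for 48 hours at five concentrations; endpoints were interpolated linearly between bracketing concentrations, or set to the highest concentration if not reached. GI50 = concentration required for 50% inhibition of growth. TGI marks complete inhibition of growth.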

In the assay the test system is NCI-H322M lung. In words: NCI anticancer screen, dose series, 48 h.
Take `COc1ccc2c(c1)C=CC1(O2)Oc2ccc(OC)cc2C=C1C` (stereo not drawn): the GI50 is 2.15 µM and the TGI is > 100 µM.
For `C[C@@H]1C[C@H]2C(=O)OCC(NC(=O)[C@H](Cc3cc(F)cc(F)c3)NC(=O)Nc3ccc(Cl)cc3F)C(=O)N3CCC[C@H]3C(=O)N3CCCC[C@H]3C(=O)N[C@@H](C)C(=O)N2C1` (stereo partly drawn), the GI50 is 3.22 µM and 2.34 µM; the TGI was 50 µM and > 100 µM.
Turning to `Cc1ccc(C)c(NC2=C(Cl)C(=O)c3nc(C)ccc3C2=O)c1`, the GI50 was 2.68 µM and the TGI is 10.5 µM.
Take `CCNC(=O)N1CCc2cc(OC)c(OCCc3ccc(OC)cc3)cc2C1c1ccc(OC)cc1C` (stereo not drawn): the GI50 was 3.02 µM and the TGI was > 100 µM.
